The other results are listed elsewhere or left out.

For this assay, the target named is T1, OsWOX13 (Oryza sativa, UniProt Q5QMM3 1-267).
T1 sequence: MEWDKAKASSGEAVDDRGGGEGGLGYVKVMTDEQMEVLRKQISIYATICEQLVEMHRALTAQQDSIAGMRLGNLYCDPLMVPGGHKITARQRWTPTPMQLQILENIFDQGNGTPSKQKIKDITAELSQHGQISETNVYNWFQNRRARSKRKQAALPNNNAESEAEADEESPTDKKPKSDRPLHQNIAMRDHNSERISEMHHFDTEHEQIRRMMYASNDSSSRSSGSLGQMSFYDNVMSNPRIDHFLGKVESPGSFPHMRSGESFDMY
Kind of assay: protein-binding microarray (RPBM); PBS, 2% BSA, 51.3 ng/ul salmon testes DNA, 50 uM zinc acetate, 200 nM TF, 25 C, 1 h; high values mean tight binding. The note with it: protein: recombinant; tags: N-terminal polyhistidine and DsRed monomer fusion (pET32a); label: CyDye5-dUTP incorporated in the synthesized complementary strand; 3' TTTTT single-stranded linker to array surface; dsDNA, one strand shown. In a few lines:
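Binding signal is reported as fluorescence intensity per feature (arbitrary units) from an Axon 4000B scanner. Incubation used 200 nM of each Ni–NTA-purified, N-terminally polyhistidine- and DsRed-fused transcription factor from E. coli BL21-CodonPlus on a double-stranded custom Agilent array for 1 h at 25 °C, with 50 µM zinc acetate in the buffer, followed by washing.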
With “TTTTGATCACCCGTTTCTGATGGAATGGAAGTCCCTTGCCCGGAGTCACCTAGTGCAG”, the binding signal is 3800 fluorescence intensity (a.u.).

As for “CAAAATGAGAATAAATTGAATTCAATTCAAACCTCTTAATCGGAGTCACCTAGTGCAG”, the binding signal was 16500 fluorescence intensity (a.u.). The same measure for “GTTGATTTTCATAATGAAGCTGTATTTCAATTTTGAACTGCGGAGTCACCTAGTGCAG”: 22300 fluorescence intensity (a.u.). Take “TTGATTAGACACAACATGTTCGGCTGCTCACTGCCAACAGCGGAGTCACCTAGTGCAG”: the binding signal is 21500 fluorescence intensity (a.u.). “CAAATTGAAGAGGATGCATGAATTGGATTTGCAGGAGAAGCGGAGTCACCTAGTGCAG”: the binding signal was 5250 fluorescence intensity (a.u.).

For the sequence “TTATTTAGATTGAGAGTAGTATGTCCACATCGCATATCTTCGGAGTCACCTAGTGCAG”, the binding signal was 25800 fluorescence intensity (a.u.).

With “ATATTTAAACACTAATTTAGAGTATTAAATATAGACTACTCGGAGTCACCTAGTGCAG”, the binding signal is 9470 fluorescence intensity (a.u.). The figure for “GCGATCAATTAGTGCGTGATTAATTAAGTATTAGCTATTTCGGAGTCACCTAGTGCAG” is 4760 fluorescence intensity (a.u.).

As to “CCGGTAATAGAAGGTACGGAAATTTAGTGCAAATTTTAGTCGGAGTCACCTAGTGCAG”, the binding signal was 3860 fluorescence intensity (a.u.). With “TCTGATTGATGATGACGATGATGGCGGCTGTGCAGCTGAACGGAGTCACCTAGTGCAG”, the binding signal was 47600 fluorescence intensity (a.u.). The same measure for “ATATTTAATCTCTATTTAACAATTGCTGATGATGGCTGGCCGGAGTCACCTAGTGCAG”: 7210 fluorescence intensity (a.u.). For the sequence “AAAATTGATGGCCCCAGGCTGGCAGCGCCCTGAGATCCTTCGGAGTCACCTAGTGCAG”, the binding signal is 12300 fluorescence intensity (a.u.). The same measure for “ATAAATTGGTGGACGTCCACTTGAGTTAGAATCCTCTCCCCGGAGTCACCTAGTGCAG”: 23300 fluorescence intensity (a.u.); for “TCTATCAATCAGTTTGGACAGTGAGCGACAGAGGCGGCGCCGGAGTCACCTAGTGCAG”: 4190 fluorescence intensity (a.u.); for “CTATAATTAATCTCGCCGGAGTCCTCGCCGCGAACCCACCCGGAGTCACCTAGTGCAG”: 17300 fluorescence intensity (a.u.).

Regarding “ATAATTATATAATATATAATTAGCATATTAAACTACACGACGGAGTCACCTAGTGCAG”, the binding signal is 34500 fluorescence intensity (a.u.). The same measure for “GATAATTGAAGGGCGCTATATACCTGATTTTACGGTTGAGCGGAGTCACCTAGTGCAG”: 45500 fluorescence intensity (a.u.). Consider “AGAAAATGCCATAGTTAATTGCATACTTGCATGTATGCCTCGGAGTCACCTAGTGCAG”, for which the binding signal was 6780 fluorescence intensity (a.u.). The figure for “GGTGACATAACTGAACAAGTTGGAGGACCTAAACGAGTGACGGAGTCACCTAGTGCAG” is 8010 fluorescence intensity (a.u.). Take “TTTATACAATTATTATTACTGCTATTGGTAATAATGCTTTCGGAGTCACCTAGTGCAG”: the binding signal was 3450 fluorescence intensity (a.u.).

With “ACAGATTAAACAATCAAATAAAACTACATGTGAACACCTACGGAGTCACCTAGTGCAG”, the binding signal is 13000 fluorescence intensity (a.u.). As to “TATAATTATTCTAGCTACGAACCAGAGCATTTTATATCTTCGGAGTCACCTAGTGCAG”, the binding signal is 5860 fluorescence intensity (a.u.). The same measure for “ACAAAACAAATTACAGATTCCGCTTATAAACTGCGAGACGCGGAGTCACCTAGTGCAG”: 10100 fluorescence intensity (a.u.); for “GCAGCAAAATGGAAATTGATACCAAACTAATTTTCTCATTCGGAGTCACCTAGTGCAG”: 10600 fluorescence intensity (a.u.).

In the case of “GCGCAATTAACAACAATGACGGGCATGCTTGGAGGTGAGCCGGAGTCACCTAGTGCAG”, the binding signal was 21000 fluorescence intensity (a.u.).

Consider “AAACAATTACAAATGTTTAGCTGACATACAAGAACTGGACCGGAGTCACCTAGTGCAG”, for which the binding signal was 3460 fluorescence intensity (a.u.).

As to “CAAATGACTTATAATATGAAATAATTAACTTCCAGTGTATCGGAGTCACCTAGTGCAG”, the binding signal was 8710 fluorescence intensity (a.u.). The figure for “GGATGATATGATTAACAGGATGTTATGCAGGCTGTAGATCCGGAGTCACCTAGTGCAG” is 36300 fluorescence intensity (a.u.). With “CACAGCTAAATTAGCTTATTCGTTGACACTTCCTCTCTTTCGGAGTCACCTAGTGCAG”, the binding signal was 11900 fluorescence intensity (a.u.). The figure for “ATTAACAGGATGTTCTTGCACCAACAAGACTGTCATTAGCCGGAGTCACCTAGTGCAG” is 8890 fluorescence intensity (a.u.). Regarding “TAAAATTTATTTGGTTACTGATCTACTCCCTCCGTCTTGACGGAGTCACCTAGTGCAG”, the binding signal was 3940 fluorescence intensity (a.u.). In the case of “TAACCACAGTAATTAATCTCAAATTAAAGCCACAGTGCACCGGAGTCACCTAGTGCAG”, the binding signal is 7820 fluorescence intensity (a.u.).

With “TCCCTCCTTACCAAATTGATCATCACGTAATAGAATCTAACGGAGTCACCTAGTGCAG”, the binding signal is 7460 fluorescence intensity (a.u.).

Take “TATGATTCTAACAGGAATAAGTGTGAAACAGAGGATTACACGGAGTCACCTAGTGCAG”: the binding signal is 3410 fluorescence intensity (a.u.). Turning to “ATTTAATTGATCGAACTAAGGCTAAACAACAAGGGAATCACGGAGTCACCTAGTGCAG”, the binding signal is 36700 fluorescence intensity (a.u.). “CATATAATTAGTTAGGTATGTAATCATGGATTGTGAAATACGGAGTCACCTAGTGCAG”: the binding signal is 19100 fluorescence intensity (a.u.). The figure for “AAATGACAAATAAAATTTGACCGGAGTGATAGTGGTGTGGCGGAGTCACCTAGTGCAG” is 6620 fluorescence intensity (a.u.). For the sequence “ATCTAATAGACTAATACACAGTCAAGCGCGCGCCGCACGCCGGAGTCACCTAGTGCAG”, the binding signal is 14100 fluorescence intensity (a.u.). The same measure for “CTGTTTTGACAAATTGTTCATCGGTCGCTGCTTCTGTGGACGGAGTCACCTAGTGCAG”: 4590 fluorescence intensity (a.u.); for “GGCAAACTTTTGTCAATTAATGTTAATACTGGACTACATTCGGAGTCACCTAGTGCAG”: 14700 fluorescence intensity (a.u.); for “ACTGGAAGATAGCTAATTAATTAGCTAGCTAAAGCTTCTCCGGAGTCACCTAGTGCAG”: 15700 fluorescence intensity (a.u.). The same measure for “ATCAACTGATTAGGTTTCTTGTGGTGGAATCAGCCTACCCCGGAGTCACCTAGTGCAG”: 29000 fluorescence intensity (a.u.).
